Assay results published in patent US20210221891A1 (NANJING LEGEND BIOTECH, published 2021).
Like-named read-outs stand apart in the source and are kept apart here.

Key:
[1] = target: T1, human PD-L1 expressed on CHO-K1 cells (human, UniProt Q9NZQ7); assay: cell-based or functional assay
[2] = target: T1, human PD-L1 expressed on CHO-K1 cells; assay: cell-based or functional assay; remark: listed apart in the source
[3] = target: T2, recombinant human PD-L1 His protein (R&D System) (human, UniProt Q9NZQ7 in part); assay: SPR, Biacore; affinity ranking of HCAbs, PD-L1/His printed as ligand
T2 construct: Bought protein; not shown: His tag

T1 sequence (Q9NZQ7 19-290): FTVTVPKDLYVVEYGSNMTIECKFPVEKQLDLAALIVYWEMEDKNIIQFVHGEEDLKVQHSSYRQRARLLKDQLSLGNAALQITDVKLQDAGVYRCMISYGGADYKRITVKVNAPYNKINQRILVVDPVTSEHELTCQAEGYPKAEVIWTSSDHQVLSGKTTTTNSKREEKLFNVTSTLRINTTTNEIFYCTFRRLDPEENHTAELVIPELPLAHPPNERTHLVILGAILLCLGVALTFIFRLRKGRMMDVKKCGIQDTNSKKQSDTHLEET

EC50 of PD-L1- based blockade assay for HCAbs [1]	EC50 of PD-L1- based blockade assay for HCAbs [2]	kon [3]	Binder
7.55 nM			AS11947 HCAb (Fc fusion, heavy chain-only antibody: sdAb fused with human Fc region) heavy: DVQLVESGGGLVQAGDSLRLTCSASGRTFISYAVGWFRQAPGTEREFVAGIRWNGISTDYTDSVKGRFTISRDNAKNTVYLQMNSLKPEDTAIYYCAAHRTIATIPNKYEYDHWGQGTQVTVSS[human IgG1 Fc not written out]
5.8 nM	5 nM		AS11948 HCAb (Fc fusion) heavy: EVQLVESGGGLVQAGDSLRLSCVASGRTFVTYGMGWFRQAPGKEREFVAAINWSGSMTSYGDSVKGRFAISRDNAKNTVYLQMNSLKPEDTAVYYCAAALGAVVYTTREPYTYWGRGTQVTVSS[human IgG1 Fc not written out]
	7.86 nM		AS11948SVH12M8 HCAb (Fc fusion) heavy: EVQLVESGGGLVQPGGSLRLSCAASGRTFVTYGMGWFRQAPGKGREFVSAISWSGSITSYGDSVKGRFTISRDNAKNTLYLQMNSLRPEDTAVYYCAAALGAVVYTTREPYTYWGQGTLVTVSS[human IgG1 Fc not written out]
	2.91 nM		AS11948SVH12 HCAb (Fc fusion) heavy: EVQLVESGGGLVQPGGSLRLSCAASGRTFVTYGMGWFRQAPGKGREFVSAISWSGSMTSYGDSVKGRFTISRDNAKNTLYLQMNSLRPEDTAVYYCAAALGAVVYTTREPYTYWGQGTLVTVSS[human IgG1 Fc not written out]
	3.28 nM		AS11948S HCAb (Fc fusion) heavy: EVQLVESGGGLVQAGDSLRLSCVASGRTFVTYGMGWFRQAPGKEREFVAAISWSGSMTSYGDSVKGRFAISRDNAKNTVYLQMNSLKPEDTAVYYCAAALGAVVYTTREPYTYWGRGTQVTVSS[human IgG1 Fc not written out]
	4.28 nM		AS06617VH11 HCAb (Fc fusion) heavy: EVQLVESGGGLVQPGGSLRLSCAASGRTFISYAVGWFRQAPGKGREFVSGIRWSGIHTDYADSVKGRFTISRDNAKNTLYLQMNSLRPEDTAVYYCAAHRTIATIPEKYEYEYWGQGTLVTVSS[human IgG1 Fc not written out]
	5.26 nM		AS06775VH11 HCAb (Fc fusion) heavy: EVQLVESGGGLVQPGGSLRLSCAASGRTFLTLAVGWFRQAPGKGREFVSGIRWSGSGTDYADSVKGRFTISRDNAKNTLYLQMNSLRPEDTAVYYCAAHTTIATIPEKYEYEYWGQGTLVTVSS[human IgG1 Fc not written out]
	3.43 nM		AS06775VH4 HCAb (Fc fusion) heavy: EVQLVESGGGLVQPGGSLRLSCAASGRTFLTYAVGWFRQAPGKGLEFVSGIRWSGGYTDYADSVKGRFTISRDNSKNTLYLQMNSLRAEDTAVYYCAAHRTIATIPEKYEYEYWGQGTLVTVSS[human IgG1 Fc not written out]
5.54 nM			AS06778 HCAb (Fc fusion, heavy chain-only antibody: sdAb fused with human Fc region) heavy: QVQLVESGGGLVQAGGSLKLSCAASGRTFITYAMGWFRQAPGKERELVAAISWSGSSTYSADSVKGRFTISRDNAKNTVYLQMNSLKPEDTAVYYCAAEVSARTGEHLPKLMGDYWGQGTQVTVSS[human IgG1 Fc not written out]
9.98 nM	3.6 nM		AS06750 HCAb (Fc fusion, heavy chain-only antibody: sdAb fused with human Fc region) heavy: AVQLVESGGGLVQAGDSLRLSCTASGRTFLTYAVGWFRQAPGTEREFVAGIRWSGGYTDYADSVKGRFTISRDNAKNTVYLQMNSLKPEDTAVYYCAAHRTIATIPEKYEYEYWGQGTQVTVSS[human IgG1 Fc not written out]
	4.44 nM		AS06750VH2 HCAb (Fc fusion) heavy: EVQLVESGGGLVQPGGSLRLSCAASGRTFLTYAVGWFRQAPGKGLEWVAGIRWSGGYTDYADSVKGRFTISRDNSKNTVYLQMNSLRAEDTAVYYCAAHRTIATIPEKYEYEYWGQGTLVTVSS[human IgG1 Fc not written out]
9.34 nM			AS12003 HCAb (Fc fusion, heavy chain-only antibody: sdAb fused with human Fc region) heavy: EVQLVESGGGLVQAGDSLRLSCAASGRTFLSYAVGWFRQAPGTEREFVAGIRWSGGSTDYADSVKGRFTISRDNAKNTVYLQMNSLKPEDTAVYYCAAHRTIATVPNKYEYDTWGQGTQVTVSS[human IgG1 Fc not written out]
	3.61 nM		AS06750VH11 HCAb (Fc fusion) heavy: EVQLVESGGGLVQPGGSLRLSCAASGRTFLTYAVGWFRQAPGKGREFVSGIRWSGGYTDYADSVKGRFTISRDNAKNTLYLQMNSLRPEDTAVYYCAAHRTIATIPEKYEYEYWGQGTLVTVSS[human IgG1 Fc not written out]
6.45 nM			AS06618 HCAb (Fc fusion, heavy chain-only antibody: sdAb fused with human Fc region) heavy: EVQLVESGGRLVRAGDSLRLSCAASGRTFLSYAVGWFRQAPGTEREFVAGIRWSGGYTDYAEAVKGRFTISRDNAKNTVYLQMNSLKPEDTAVYYCAAHRTIATIPEKYEYEYWGQGTQVTVSS[human IgG1 Fc not written out]
6.2 nM	3.86 nM	310000 M⁻¹ s⁻¹	AS06617 HCAb (Fc fusion, heavy chain-only antibody: sdAb fused with human Fc region) heavy: DVQLVESGGGLVQAGDSLRLSCAASGRTFISYAVGWFRQAPGSEREFVAGIRWNGIHTDYADSVKGRFTISRDNAKNTVTLEMTSLKPEDTAVYYCAAHRTIATIPEKYEYEYWGQGTQVTVSS[human IgG1 Fc not written out]
6.66 nM			AS06682 HCAb (Fc fusion, heavy chain-only antibody: sdAb fused with human Fc region) heavy: AVQLVESGGGLVQAGDSLRLSCTASGRTFLSYAVGWFRQAPGTEREFVAGIRWSGEHTDYAASVKGRFTISRDNAKNTVYLQMNSLKPEDTAVYYCAAHTTIATIPKKYEYEYWGQGTQVTVSS[human IgG1 Fc not written out]
5.8 nM	3.08 nM		AS06775 HCAb (Fc fusion, heavy chain-only antibody: sdAb fused with human Fc region; also called AS0775) heavy: QVQLVESGGGLVQAGDSLRLSCAASGRTFLTLAVGWFRQAPGTEREFVAGIRWSGSGTDYADSVKGRFTISRDNAKNTVYLQMNSLKPEDTAVYYCAAHTTIATIPEKYEYEYWGRGTQVTVSS[human IgG1 Fc not written out]
6.79 nM	2.15 nM		AS06730 HCAb (Fc fusion, heavy chain-only antibody: sdAb fused with human Fc region; also called AS0730 HCAb) heavy: QVQLVESGGGLVQAGGSLRLSCAASGRTFITYAIGWFRQAPGKEREFVSAINWSGSMTSYADSVKGRFTISRDNAKNTVYLQMNGLKPEDTAVYYCAAHRGAIAPIAQSVYTNWGQGTQVTVSS[human IgG1 Fc not written out]
	2.54 nM		AS06730S HCAb (Fc fusion) heavy: QVQLVESGGGLVQAGGSLRLSCAASGRTFITYAIGWFRQAPGKEREFVSAISWSGSMTSYADSVKGRFTISRDNAKNTVYLQMNGLKPEDTAVYYCAAHRGAIAPIAQSVYTNWGQGTQVTVSS[human IgG1 Fc not written out]
5.59 nM			AS06703 HCAb (Fc fusion, heavy chain-only antibody: sdAb fused with human Fc region) heavy: EVQLVESGGGLVRAGGSLRLSCAASGRTFITYAIGWFRQAPGKEREFVTAINWSGSMTSYADSVKGRFTISRDNNKNTVYLQMNSLKPEDTALYYCAAHLGAIAPMSQSVYDYWGQGTQVTVSS[human IgG1 Fc not written out]
	4.6 nM		AS06730SVH12 HCAb (Fc fusion) heavy: EVQLVESGGGLVQPGGSLRLSCAASGRTFITYAIGWFRQAPGKGREFVSAISWSGSMTSYADSVKGRFTISRDNAKNTLYLQMNSLRPEDTAVYYCAAHRGAIAPIAQSVYTNWGQGTLVTVSS[human IgG1 Fc not written out]
5.88 nM			AS06628 HCAb (Fc fusion, heavy chain-only antibody: sdAb fused with human Fc region) heavy: QVQLVESGGGLVQAGGSLRLSCAASGRTFITYAIGWFRQAPGKEREFVTAINWSGSMTSYADSVKGRFTISRDNNKNMVYLQMNSLKPEDTAVYYCAAHRGAIAPMTQSVYDYWGQGTQVTVSS[human IgG1 Fc not written out]
5.82 nM			AS06791 HCAb (Fc fusion) heavy: QVQLVESGGGLVQAGGSLRLSCAASGRTFITYAIGWFRQAPGKEREFVTAINWSGSMTSYADSVKGRFTISRDNAKNTVYLQINGLKSEDTAVYYCAAHRGAIAPMTQSVYDYWGQGTQVTVSS[human IgG1 Fc not written out]
7.37 nM			AS06686 HCAb (Fc fusion, heavy chain-only antibody: sdAb fused with human Fc region) heavy: AVQLVESGGGLVQAGDSLRLACAASGRTFLTYALGWFRQAPGKEREFVAGVSWSGSSTKYADSVKGRFTISRDNAKNTVYMQMNSLKPEDTAVYYCAAQISAIVPISAHEYQYWGQGTQVTVSS[human IgG1 Fc not written out]
